Data published in the supplement of paper PMC8728848.
This is one part of the list.

What was measured:
Assay in all cases: glycan array binding signal (z-score within array); higher = stronger binding
Conditions in all cases: glycan notation: IUPAC condensed, linker removed
[1] = molecular target: Fuc(a1-3)[Gal(b1-4)]Glc6S
Outline: (§1)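 Glycan array data came from 3228 arrays in the Consortium for Functional Glycomics database, and only arrays with an available protein sequence were kept. Glycan names were put into IUPAC-condensed notation, and columns mapping to the same glycan were averaged. The binding signal is a within-array Z-score, averaged across arrays of one protein sequence run at different concentrations or buffers and across linkers. A negative Z-score can be read as non-binding.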

[2] = molecular target: Fuc(a1-3)[Gal(b1-4)]GlcNAc
Outline: as §1

[3] = molecular target: Fuc(a1-3)[Gal(b1-4)]GlcNAc(b1-2)Man
Outline: as §1

[4] = molecular target: Fuc(a1-3)[Gal(b1-4)]GlcNAc(b1-2)Man(a1-3)[Fuc(a1-3)[Gal(b1-4)]GlcNAc(b1-2)Man(a1-6)]Man(b1-4)GlcNAc(b1-4)GlcNAc
Outline: as §1

[5] = molecular target: Fuc(a1-3)[Gal(b1-4)]GlcNAc(b1-2)Man(a1-3)[Fuc(a1-3)[Gal(b1-4)]GlcNAc(b1-2)Man(a1-6)]Man(b1-4)GlcNAc(b1-4)[Fuc(a1-6)]GlcNAc
Outline: as §1

[6] = molecular target: Fuc(a1-3)[Gal(b1-4)]GlcNAc(b1-3)Gal(b1-3)[Fuc(a1-4)]GlcNAc
Outline: as §1

[7] = molecular target: Fuc(a1-3)[Gal(b1-4)]GlcNAc(b1-3)Gal(b1-4)[Fuc(a1-3)]GlcNAc
Outline: as §1

[8] = molecular target: Fuc(a1-3)[Gal(b1-4)]GlcNAc(b1-3)Gal(b1-4)[Fuc(a1-3)]GlcNAc(b1-3)Gal(b1-4)[Fuc(a1-3)]GlcNAc
Outline: as §1

[9] = molecular target: Fuc(a1-3)[Gal(b1-4)]GlcNAc(b1-3)GalNAc
Outline: as §1

[10] = molecular target: Fuc(a1-3)[Gal(b1-4)]GlcNAc(b1-6)GalNAc
Outline: as §1

[11] = molecular target: Fuc(a1-3)[Gal(b1-4)]GlcNAc(b1-6)[Gal(b1-3)GlcNAc(b1-3)]Gal(b1-4)Glc
Outline: as §1

[12] = molecular target: Fuc(a1-3)[Gal(b1-4)]GlcNAc6S
Outline: as §1

[13] = molecular target: Fuc(a1-3)[Gal3S(b1-4)]Glc
Outline: as §1

[14] = molecular target: Fuc(a1-3)[Gal3S(b1-4)]GlcNAc
Outline: as §1

[15] = molecular target: Fuc(a1-3)[Gal3S(b1-4)]GlcNAc6S
Outline: as §1

[16] = molecular target: Fuc(a1-3)[GalNAc(b1-4)]GlcNAc
Outline: as §1

[17] = molecular target: Fuc(a1-3)[GalNAc(b1-4)]GlcNAc6S
Outline: as §1

Fuc(a1-4)GlcNAc = molecular target: Fuc(a1-4)GlcNAc
Outline: as §1

Fuc(b1-3)GlcNAc = molecular target: Fuc(b1-3)GlcNAc
Outline: as §1

Gal(a1-2)Gal = molecular target: Gal(a1-2)Gal
Outline: as §1

Gal(a1-3)Gal = molecular target: Gal(a1-3)Gal
Outline: as §1

Gal(a1-3)Gal(b1-3)GlcNAc = molecular target: Gal(a1-3)Gal(b1-3)GlcNAc
Outline: as §1

[18] = molecular target: Gal(a1-3)Gal(b1-3)GlcNAc(b1-2)Man
Outline: as §1

[19] = molecular target: Gal(a1-3)Gal(b1-3)GlcNAc(b1-2)Man(a1-3)[Gal(a1-3)Gal(b1-3)GlcNAc(b1-2)Man(a1-6)]Man(b1-4)GlcNAc(b1-4)GlcNAc
Outline: as §1

[20] = molecular target: Gal(a1-3)Gal(b1-3)GlcNAc(b1-3)GalNAc
Outline: as §1

[21] = molecular target: Gal(a1-3)Gal(b1-3)GlcNAc(b1-6)GalNAc
Outline: as §1

[22] = molecular target: Gal(a1-3)Gal(b1-3)[Fuc(a1-4)]GlcNAc(b1-2)Man(a1-3)[Gal(a1-3)Gal(b1-3)[Fuc(a1-4)]GlcNAc(b1-2)Man(a1-6)]Man(b1-4)GlcNAc(b1-4)GlcNAc
Outline: as §1

Gal(a1-3)Gal(b1-4)Glc = molecular target: Gal(a1-3)Gal(b1-4)Glc
Outline: as §1

Gal(a1-3)Gal(b1-4)GlcNAc = molecular target: Gal(a1-3)Gal(b1-4)GlcNAc
Outline: as §1

[23] = molecular target: Gal(a1-3)Gal(b1-4)GlcNAc(b1-2)Man
Outline: as §1

[24] = molecular target: Gal(a1-3)Gal(b1-4)GlcNAc(b1-2)Man(a1-3)[Gal(a1-3)Gal(b1-4)GlcNAc(b1-2)Man(a1-6)]Man(b1-4)GlcNAc(b1-4)GlcNAc
Outline: as §1

[25] = molecular target: Gal(a1-3)Gal(b1-4)GlcNAc(b1-3)GalNAc
Outline: as §1

[26] = molecular target: Gal(a1-3)Gal(b1-4)GlcNAc(b1-6)GalNAc
Outline: as §1

[27] = molecular target: Gal(a1-3)Gal(b1-4)[Fuc(a1-3)]GlcNAc
Outline: as §1

[28] = molecular target: Gal(a1-3)Gal(b1-4)[Fuc(a1-3)]GlcNAc(b1-2)Man(a1-3)[Gal(a1-3)Gal(b1-4)[Fuc(a1-3)]GlcNAc(b1-2)Man(a1-6)]Man(b1-4)GlcNAc(b1-4)GlcNAc
Outline: as §1

Gal(a1-3)GalNAc = molecular target: Gal(a1-3)GalNAc
Outline: as §1

[29] = molecular target: Gal(a1-3)[Gal(a1-4)]Gal(b1-4)GlcNAc
Outline: as §1

B1: ACA (Amaranthus caudatus) (protein)
chain: MAGLPVIMCLKSNNNQKYLRYQSDNIQQYGLLQFSADKILDPLAQFEVEPSKTYDGLVHIKSRYTNKYLVRWSPNHYWITASANEPDENKSNWACTLFKPLYVEEGNMKKVRLLHVQLGHYTQNYTVGGSFVSYLFAESSQIDTGSKDVFHVIDWKSIFQFPKRYVTFKGNNGKYLGVITINQLPCLQFGYDNLNDPKVAHEMFVTSNGTICIKSTYMNKFWRLSTDDWILVDGNDPRETNEAAALFRSDVHDFNVISLLNMQKTWFIKRFTSGKPGFINCMNAATQNVDETAILEIIELGSNN
glycan array binding signal (z-score) [1]: 0.058
glycan array binding signal (z-score) [2]: -0.185
glycan array binding signal (z-score) [3]: 0.246
glycan array binding signal (z-score) [4]: -0.387
glycan array binding signal (z-score) [5]: 0.615
glycan array binding signal (z-score) [6]: 0.001
glycan array binding signal (z-score) [7]: -0.135
glycan array binding signal (z-score) [8]: -0.379
glycan array binding signal (z-score) [9]: -0.103
glycan array binding signal (z-score) [10]: 0.307
glycan array binding signal (z-score) [11]: 0.14
glycan array binding signal (z-score) [12]: 0.455
glycan array binding signal (z-score) [13]: -0.145
glycan array binding signal (z-score) [14]: 0.003
glycan array binding signal (z-score) [15]: -0.303
glycan array binding signal (z-score) [16]: -0.069
glycan array binding signal (z-score) [17]: -0.294
glycan array binding signal (z-score) (Fuc(a1-4)GlcNAc): -0.663
glycan array binding signal (z-score) (Fuc(b1-3)GlcNAc): 0.061
glycan array binding signal (z-score) (Gal(a1-2)Gal): 0.024
glycan array binding signal (z-score) (Gal(a1-3)Gal): -0.223
glycan array binding signal (z-score) (Gal(a1-3)Gal(b1-3)GlcNAc): 0.058
glycan array binding signal (z-score) [18]: -0.587
glycan array binding signal (z-score) [19]: 0.725
glycan array binding signal (z-score) [20]: -0.395
glycan array binding signal (z-score) [21]: 0.287
glycan array binding signal (z-score) [22]: 0.809
glycan array binding signal (z-score) (Gal(a1-3)Gal(b1-4)Glc): -0.384
glycan array binding signal (z-score) (Gal(a1-3)Gal(b1-4)GlcNAc): -0.357
glycan array binding signal (z-score) [23]: 0.029
glycan array binding signal (z-score) [24]: -0.158
glycan array binding signal (z-score) [25]: 0.005
glycan array binding signal (z-score) [26]: -0.246
glycan array binding signal (z-score) [27]: 0.091
glycan array binding signal (z-score) [28]: -0.878
glycan array binding signal (z-score) (Gal(a1-3)GalNAc): 0.156
glycan array binding signal (z-score) [29]: 0.1
